Test results as given in PubChem BioAssay AID1508624 (National Center for Advancing Translational Sciences (NCATS), 2021).
The whole screen tested about 48,000 compounds, of which about 120 (0.25%) were called active. Not shown: some 4% with an inconclusive outcome. The call rests on the fitted dose curve; in most records, active means well fitted activation curve with a large enough effect; inconclusive means small, poorly fitted or top-dose-only effect, or another doubt; inactive means no such curve, though single readings can be large or run the other way. This is one part of the list.

test: Primary qHTS for Identification of Small Molecule Activators of Huntingtin-Antisense Promoter Activity; conditions: HEK293 HTT-AS promoter firefly luciferase reporter, 24 h; series mostly up to 57.5 µM; activity change, positive = activation: at the top concentration; further: nearly all actives have a fitted effect of over 55% in size
Excerpt: Assay Provider: Russell L. Margolis M.D.
Department Neurology, Johns Hopkins University School of Medicine, Baltimore, MD
Huntington's Disease (HD) is a neurodegenerative disorder caused by a CAG repeat expansion in exon 1 of huntingtin (HTT). While there are currently no disease-modifying treatments for HD, recent efforts have focused on development of nucleotide-based therapeutics to lower HTT expression. As an alternative to siRNA or oligonucleotide methods, we hypothesized that suppression of HTT expression might be accomplished by small molecules that either (1) directly decrease HTT expression by suppressing HTT promoter activity or (2) indirectly decrease HTT expression by increasing the promoter activity of HTT-AS, the gene antisense to HTT that appears to inhibit expression of HTT.
We developed and employed a high throughput screen for modifiers of HTT and HTT-AS promoter activity using luminescent reporter HEK293 cells; of the 52,041 compounds tested, we identified 898 replicable hits. We used a rigorous stepwise approach to assess compound toxicity and the capacity of the compounds to specifically lower huntingtin protein in 5 different cell lines, including HEK293 cells, HD lymphoblastoid cells, mouse primary neurons, HD iPSCs differentiated into cortical-like neurons, and HD hESCs. We found no compounds which were able to lower huntingtin without lowering cell viability in all assays, though the potential efficacy of a few compounds at non-toxic doses could not be excluded.
SEQUENCE No. (1, 2, 3, etc.); […] (e.g., Cells, Incubation, Reagent, etc.); VALUE and DESCRIPTION.
1; Reagent; 4 uL; 2,500 Hek293 luciferase reporter cells per wells
3; Compound; 23 nL; Control inhibitor / compound library
5; Reagent; 2.5 uL; Firefly Luc reagent; Dual-Glo Luciferase Reporter Assay System (Promega)
6; Time; 10 min; room temperature incubation
7; Detection; Luminescence; FLuc
NOTES (numbers refer to sequence above)
1; High-throughput screening, measuring luminescence from a Hek293 luciferase reporter, was performed in 1,536 well white-walled tissue-culture treated plates. 2,500 cells were plated in 4 µL of Opti-MEM per well using a Multidrop Combi Reagent Dispenser (ThermoFisher).
2; Assay plates were cultured for 24 hours.
3; Control inhibitor (PTC124; final concentration of 50 uM) and compound library (at final concentrations of 460 nM - 57.5 uM) were added to the assay plate using the Kalypsis Pintool Robotic System equipped with 1536 pinheads.
4; Cells were then incubated for 24 hours at 37 degrees C prior to luminescence measurements.
5; In all cases, luminescence was measured using the Dual-Glo Luciferase Reporter Assay System (Promega) following the manufacturer's instructions.
6; Room temperature incubation.
7; Luminescence signal was obtained using the PerkinElmer ViewLux plate reader. Results were normalized to vehicle control (0% activity) and zero RLU (-100% activity).

Activity change, positive = activation, inactive:
CSc1ncc(C(=O)Nc2ccc(F)cc2F)c(-c2ccccc2)n1 -9.79%
CCCC1=Nc2cc(C(=O)NCCc3ccc(OC)cc3OC)ccc2Sc2ccccc21 -50.3%
Cc1ccc2oc(-c3cc(NC(=O)c4ccco4)ccc3Cl)nc2c1 -8.73%
CCN(CC)CCNC(=O)c1nn(C)c2c1CS(=O)(=O)c1ccccc1-2 -5.98%
CCOC(=O)c1ccc(N2C(=O)c3n[nH]c(-c4ccco4)c3C2c2ccc(O)c(OC)c2)cc1 (configuration not stated) -59.5%
CCC(=O)N1c2ccccc2CC1C(=O)NCCc1ccc(C)cc1 (configuration not stated) -8.76%
Cc1ccc(CNC(=O)c2nn(C)c3c2CS(=O)(=O)c2ccccc2-3)cc1 -15.2%
Cc1cn(C)c(CC(=O)NCc2ccccc2Cl)c1C(=O)O -11.3%
O=C(CSCc1nc2cccnc2n1C1CCCCC1)NCc1cccc(Cl)c1 -23.3%
COc1ccc(-n2nc(C(=O)N3CCN(c4cccc(C)c4C)CC3)c3c4ccccc4n(C)c3c2=O)cc1 0.848%
O=C(Nc1nc2nc(-c3ccccc3)cc(=O)n2[nH]1)c1ccc(Cl)cc1 -14.6%
CNC(=O)COc1ccc(NC(=O)CCn2nc(-c3ccc(C)cc3)c3ccccc3c2=O)cc1 -30%
CCOC(=O)c1ccccc1NC(=O)N1CCC(N2CCN(Cc3ccccc3)C(=O)C2=O)CC1 -0.0383%
C[C@H]1[C@H](O)O[C@@H]2O[C@@]3(C)CC[C@@H]4[C@H](C)CC[C@@H]1[C@@]24OO3 -37.6%
O=C(Cn1c(=O)n(CC2CCCO2)c(=O)c2ccccc21)Nc1cccc(Cl)c1 (configuration not stated) -17.7%
COc1cc(OC)c(Nc2nc3ccccc3nc2-n2nc(C)cc2C)cc1Cl -18.1%
COC(=O)c1scc(-c2ccc(C)cc2)c1S(=O)(=O)N1CCN(c2ccc(OC)cc2)CC1 -21.6%
CCS(=O)(=O)N1CCc2cc(C(=O)NCc3ccccc3)ccc21 5.16%
Cc1ccc(N)cc1O -6.44% [at 116 µM, percent change from vehicle, -100% = no light]
Cc1ccc(CCn2c3c(c4cc(Cl)ccc42)CN(C)CC3)cn1 2.09%
CCCCN1CC(c2nc3ccccc3n2CCCCOc2ccc(C)c(C)c2)CC1=O (configuration not stated) -47.5%
Cc1ccc(F)c(NC(=O)Nc2ccc3snnc3c2)c1 6.43%
CC(=O)N1CCCc2cc(S(=O)(=O)N(C)CC(=O)Nc3cccc(C)c3C)ccc21 -10.3%
CCOc1ccc(CCNC(=O)c2cn(CC)c3ccc(S(=O)(=O)N4CCCCCC4)cc3c2=O)cc1OCC -27.7%
O=C1c2[nH]nc(-c3ccccc3O)c2C(c2cccc(Cl)c2)N1Cc1cccnc1 (configuration not stated) -30.5%
O=C(NCCN1CCN(c2cccc(Cl)c2)CC1)C1COc2ccccc2C1 (configuration not stated) -14.6%
Cc1cccc(CNC(=O)Cn2ccc3cc(S(=O)(=O)N4CCCC4)ccc32)c1 -17.5%
O=C(c1ccc(CSc2nc3ccncc3n2Cc2cccc(F)c2)cc1)N1CCCCC1 -21.3%
CCOc1ccc(N(CC(=O)NCc2ccc(C)cc2)S(=O)(=O)c2c(C)noc2C)cc1 -5.37%
CCOC(=O)c1c(C)oc2ccc(N(C(=O)c3ccncc3)S(=O)(=O)c3ccc(Br)cc3)cc12 -33.4%
CC1=C(c2ccc(C(C)C)cc2)S(=O)(=O)NC1=NCc1ccccc1Br -17.1%
Cc1cccc(NC(=O)Cn2c(=O)nc(-c3ccccc3)c3ccccc32)c1C -9.51%
CNC(=O)C1CCC(Cn2c(=O)c3sccc3n(CC(=O)Nc3ccc(C)c(F)c3)c2=O)CC1 (configuration not stated) -25.1%
COc1ccc(C)cc1NC(=O)C1CCCN(S(=O)(=O)c2ccc3[nH]c(=O)ccc3c2)C1 (configuration not stated) -30.5%
COc1cc(NC(=O)CN2C(=O)CN(C)C(=O)c3ccccc32)cc(OC)c1OC -8.75%
CCCCCCCCCC(=O)N[C@@H](Cc1c[nH]c2ccccc12)C(=O)N[C@H](CC(N)=O)C(=O)N[C@@H](CC(=O)O)C(=O)N[C@@H]1C(=O)NCC(=O)N[C@@H](CCCN)C(=O)N[C@@H](CC(=O)O)C(=O)N[C@H](C)C(=O)N[C@@H](CC(=O)O)C(=O)NCC(=O)N[C@H](CO)C(=O)N[C@@H]([C@@H](C)CC(=O)O)C(=O)N[C@@H](CC(=O)c2ccccc2N)C(=O)O[C@@H]1C -7.05%
CCOc1ccc(CCNC(=O)Cn2ncc3c(=O)oc4ccc(C)cc4c32)cc1 -8.3%
CCOC(=O)c1c(C)[nH]c(C)c1S(=O)(=O)N1CCC(C(=O)Nc2ccc(C)cn2)CC1 -11.1%
CCn1c2ccccc2c2cc(NC(=O)COc3cccc(C)c3)ccc21 -8.07%
CCOc1cc2[nH]c(=O)n(CCCC(=O)N3CCN(c4ccc(OC)cc4)CC3)c(=O)c2cc1OCC -22%
CSc1ccc(CCNC(=O)CN2C(=O)c3cccnc3Oc3ccc(C)cc32)cc1 -15.1%
Cc1ccc2c(=O)cc(C(=O)N(Cc3ccc(N(C)C)cc3)C3CCS(=O)(=O)C3)oc2c1 (configuration not stated) 7.23%
CCCN1CCN(CCCNC(=O)Cn2nc(CC)n3c(cc4occc43)c2=O)CC1 -17.1%
Cc1cc(NC(=O)N(C)CCc2c(C)nn(C)c2C)ccc1Br -3.14%
N=c1n(CCN2CCCCC2)c2ccccc2n1CC(O)COc1ccc(Cl)cc1Cl (configuration not stated) -46.3%
CCc1cccc(C)c1NC(=O)CSc1nc2ccccc2nc1N1CCOCC1 0%
CC1(C)O[C@H]2[C@@H](O1)[C@@H](C(=O)Nc1ccc(F)c(F)c1)O[C@@H]1OC(C)(C)O[C@@H]12 -6.09%
COc1ccc(Cn2c(SCc3ccc(C(=O)NCc4cccs4)cc3)nc3cccnc32)cc1 -29.8%
Cc1cc(F)ccc1NS(=O)(=O)c1c(C)nc2scc(C)n2c1=O -21.5%
Cc1ccc(S(=O)(=O)N(CCc2ccccc2)CC(=O)Nc2cc(C)ccc2C)cc1 -19.1%
CCOC(=O)c1cc(-c2ccc(C)cc2)n(CCC(=O)Nc2ccc(C(C)C)cc2)c1C -28.6%
COc1cc(C2C(C(=O)Nc3ccc(C)cc3C)=C(C)Nc3nc4ccccc4n32)cc(OC)c1OC (configuration not stated) -5.21%
Cc1cccc(NC(=O)CS(=O)(=O)c2nc(-c3ccccc3)cn2-c2cccc(Cl)c2)c1C 2.03%
Cc1cccc(NC(=O)Cn2nnc(C(=O)Nc3ccccc3Br)c2N)c1C -1.51%
Cn1cc(C(=O)NCc2ccccc2)c(=O)c2cc(S(=O)(=O)N3CCOCC3)ccc21 -4.85%
CCOc1ccccc1NC(=O)c1nc2nc(C)cc(C(F)F)n2n1 -6.24%
COc1cccc(-c2nc(CS(=O)(=O)CC(=O)Nc3c(C)cc(C)cc3C)c(C)o2)c1 -38.6%
